Measured values as given in PubChem BioAssay AID1347165 (National Center for Advancing Translational Sciences (NCATS), 2019).
Out of some 220,000 compounds screened, about 5,700 (2.6%) were called active. This list was built around the results that the source calls inconclusive (neither active nor inactive); the mix of calls is not that of the screen. The call rests on the fitted dose curve; in most records, active means well fitted inhibition curve with a large enough effect; inconclusive means small, poorly fitted or top-dose-only effect; inactive means no such curve, though single readings can be large or run the other way. Where the call is inconclusive, the potency comes from a doubtful curve fit.

What follows are molecules tested against Lysine-specific demethylase 5B (Homo sapiens) (UniProt Q9UGL1) (assay: Primary screen for KDM5B Histone Demethylases FDH-coupled qHTS). Conditions: FDH-coupled NADH fluorescence (FDH is formaldehyde dehydrogenase); activity change, negative = inhibition: at 57.7 µM (top of the series) unless noted.
Chain of UniProt Q9UGL1 (Q9UGL1 whole entry, looked up, the tested form may be a part): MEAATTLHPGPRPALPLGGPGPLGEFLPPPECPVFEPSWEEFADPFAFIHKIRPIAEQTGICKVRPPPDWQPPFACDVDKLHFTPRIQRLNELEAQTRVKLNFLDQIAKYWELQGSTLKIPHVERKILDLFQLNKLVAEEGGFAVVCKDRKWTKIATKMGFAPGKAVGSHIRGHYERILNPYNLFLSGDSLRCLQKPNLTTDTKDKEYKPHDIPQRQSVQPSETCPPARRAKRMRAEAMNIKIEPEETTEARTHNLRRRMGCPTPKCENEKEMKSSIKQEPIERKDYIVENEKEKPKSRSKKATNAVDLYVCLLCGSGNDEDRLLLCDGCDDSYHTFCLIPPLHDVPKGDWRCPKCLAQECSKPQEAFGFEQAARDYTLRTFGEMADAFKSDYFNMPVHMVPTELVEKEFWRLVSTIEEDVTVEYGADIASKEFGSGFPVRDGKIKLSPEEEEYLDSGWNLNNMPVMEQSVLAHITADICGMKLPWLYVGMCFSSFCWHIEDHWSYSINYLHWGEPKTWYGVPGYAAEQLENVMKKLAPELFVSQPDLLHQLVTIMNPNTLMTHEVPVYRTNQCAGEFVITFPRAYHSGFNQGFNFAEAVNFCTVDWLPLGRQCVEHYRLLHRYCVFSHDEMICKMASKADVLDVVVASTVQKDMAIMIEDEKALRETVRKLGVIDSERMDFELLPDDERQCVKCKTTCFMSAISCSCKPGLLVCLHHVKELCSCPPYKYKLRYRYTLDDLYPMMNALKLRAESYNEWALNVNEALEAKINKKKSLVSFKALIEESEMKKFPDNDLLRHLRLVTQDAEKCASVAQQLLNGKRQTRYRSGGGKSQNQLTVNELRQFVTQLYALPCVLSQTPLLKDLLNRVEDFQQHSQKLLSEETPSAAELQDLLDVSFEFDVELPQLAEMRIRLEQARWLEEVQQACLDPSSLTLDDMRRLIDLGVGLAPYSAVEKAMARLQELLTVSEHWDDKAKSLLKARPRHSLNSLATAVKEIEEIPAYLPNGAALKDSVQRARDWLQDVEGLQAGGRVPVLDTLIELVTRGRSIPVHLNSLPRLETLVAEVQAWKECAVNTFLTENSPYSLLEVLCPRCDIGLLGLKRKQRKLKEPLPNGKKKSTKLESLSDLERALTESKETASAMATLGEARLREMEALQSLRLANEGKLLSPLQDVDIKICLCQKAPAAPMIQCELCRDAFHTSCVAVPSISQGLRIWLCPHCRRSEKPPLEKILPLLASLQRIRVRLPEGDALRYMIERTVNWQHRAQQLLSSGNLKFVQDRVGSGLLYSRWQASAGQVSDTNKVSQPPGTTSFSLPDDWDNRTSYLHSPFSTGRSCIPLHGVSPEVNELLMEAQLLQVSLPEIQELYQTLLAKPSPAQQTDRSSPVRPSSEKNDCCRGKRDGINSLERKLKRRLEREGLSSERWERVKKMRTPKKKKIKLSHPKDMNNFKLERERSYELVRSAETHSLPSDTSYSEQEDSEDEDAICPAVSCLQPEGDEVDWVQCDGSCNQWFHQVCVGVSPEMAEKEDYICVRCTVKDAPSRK
Method in brief: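 Inhibition is measured as reduced NADH fluorescence generation from FDH coupling to formaldehyde release. Truncated KDM5BΔAP at 200 nM final acts on H3K4me3 peptide (12.5 µM in substrate mix) in pH 7.5 HEPES buffer with Tween-20, 30 min, room temperature.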
Further: nearly all actives have a fitted effect of over 70% in size.
Potency means the concentration at half of the fitted maximal effect; tags describe the fitted curve by direction and shape.
Wherever activity change, negative = inhibition is given: 0% is about no effect.

SMILES	Potency	activity change, negative = inhibition
CC(C)NC[C@H]1O[C@@H](CO)[C@@H](O)[C@H]1N1CCN(C)CC1	inconclusive: 11.2 µM [inhibitor, single point]	–
O=C(C1CC(=O)N(c2n[nH]c3ccccc23)C1)N1CCN(c2ccc(Cl)cc2)CC1 (stereo not given)	–	inactive: 7.42%
Cn1c(=O)c2c(nc(CN3CCN(Cc4ccccc4)CC3)n2CC(N)=O)n(C)c1=O	–	inactive: 19.2%
Cc1ccc(NC(=O)c2nc(S(C)(=O)=O)ncc2N(Cc2ccco2)Cc2ccco2)cc1C	inconclusive: 15.8 µM [inhibitor, partial curve, poor fit]	–
CCCN(CCC)C(=O)c1cc2c(=O)n3cccc(C)c3nc2n1C	inconclusive: 31.6 µM [inhibitor, partial curve, poor fit]	–
COc1ccc(OC)c(-c2cc(C(=O)Nc3ccccc3C(N)=O)c3ccccc3n2)c1	inconclusive: 39.8 µM [inhibitor, partial curve, poor fit]	–
O=C(COc1ccccc1F)Nc1cccc2cccnc12	–	inactive: -3.15%
O=C(Nc1ccc(O)cc1)c1csc(NC2CC2)n1	–	inactive: -24.5%
COc1cc(S(=O)(=O)N2CCCC2)c(OC)cc1Cl	–	inactive: -3.11%
CCCCC(=O)Nc1ccc2nc(N3CCN(CC)CC3)cc(C)c2c1	inconclusive: 25.1 µM [inhibitor, partial curve, poor fit]	–
COc1ccc(CCC(=O)NCCc2csc(-c3ccc(Cl)cc3)n2)cc1	inconclusive: 31.6 µM [inhibitor, single point]	–
CN1CCC(C(=O)N2Cc3ccccc3CC3(CCCN(CC4CCNCC4)C3)C2)CC1 (stereo not given)	inconclusive: 63.1 µM [inhibitor, partial curve, poor fit]	–
CC(C)C(=O)NC(C)c1ccc2c(c1)CCCC2 (stereo not given)	–	inactive: 19.9%
COc1ccc(Br)cc1CNC(=O)c1ccc2c(c1)N(Cc1ccc(C)cc1)CCS2	inconclusive: 31.6 µM [inhibitor, partial curve, poor fit]	–
Cc1ccc(CN2C(=O)c3ccccc3Sc3ccc(C(=O)OCc4ccco4)cc32)cc1	–	inactive: 11.5%
Cc1ccc(NC(=O)COc2ncnc3ccc(Br)cc23)cc1C	–	inactive: -5.17%
O=C1CN(C(=O)[C@H]2CN(Cc3ccccc3)C[C@H]2C(=O)O)CCN1	–	inactive: -5.86%
CCc1cccc2c(C(=O)C(=O)NCc3cccc(OC)c3)c[nH]c12	inconclusive: 39.8 µM [inhibitor, single point]	–
Cc1cccc(=O)n1CCCn1cc(C2CCCNC2)nn1 (stereo not given)	inconclusive: 31.6 µM [inhibitor, partial curve, poor fit]	–
Cc1cc(=O)oc2cc(OCC(=O)c3ccccc3)ccc12	inconclusive: 14.1 µM [inhibitor, partial curve, poor fit]	–
N#Cc1ccc(S(=O)(=O)N[C@H]2[C@H](O)[C@H](O)C[C@@H]2c2ccc(C(F)(F)F)cc2)cc1	–	inactive: -1.79% [at 86.2 µM]
CCCN(CCC)CCCNC(=O)Cn1cnc2sc(C)c(S(=O)(=O)N3CCC(C)CC3)c2c1=O	–	inactive: -25.6%

SMILES	Potency	activity change, negative = inhibition
Cn1c(C(=O)N2CCCC2)cc2c1CCN(Cc1ccccc1)C2	inconclusive: 22.4 µM [inhibitor, partial curve, poor fit]	–
CC(=O)c1ccc(NC(=O)Cn2ccn3nc(-c4ccccc4)c(CO)c3c2=O)cc1	inconclusive: 22.4 µM [inhibitor, partial curve, poor fit]	–
COc1ccc(/C=C/c2nnc(NC(=O)C(C)C)s2)cc1	inconclusive: 31.6 µM [inhibitor, partial curve, poor fit]	–
Cc1cc(F)ccc1NC(=O)c1cc2n(n1)CC(c1ccc(Cl)cc1)OC2 (stereo not given)	inconclusive: 31.6 µM [inhibitor, partial curve, poor fit]	–
Cc1c(C)c2ccc(O[C@@H]3O[C@H](CO)[C@@H](O)[C@H](O)[C@H]3O)c(C)c2oc1=O	inconclusive: 25.1 µM [inhibitor, partial curve, poor fit]	–
CCOc1cc(CNC(=O)Cn2c(-c3cccs3)cc3cc(F)ccc32)ccc1OC	inconclusive: 28.2 µM [inhibitor, partial curve, poor fit]	–
CSc1nc(SC(C)C(=O)O)c2c3c(sc2n1)COC(C)(C)C3 (stereo not given)	inconclusive: 28.2 µM [inhibitor, partial curve, poor fit]	–
Cc1cccc(-c2cccc3c4c([nH]c23)[C@@H]2C[C@H](N(C)C(=O)Nc3ccccc3C)[C@H]([C@H](C)O)CN2CC4)c1	inconclusive: 31.6 µM [inhibitor, partial curve, poor fit]	–
Fc1ccc(OCc2cc(-c3ccco3)on2)c(Br)c1	–	inactive: -14.2%
COc1ccc(NC(=O)/C(C#N)=C/c2c[nH]c3ccccc23)c(OC)c1	–	inactive: 6.43%
O=C(NCC1(c2ccccc2)CC1)c1cccc(S(=O)(=O)N2CCOCC2)c1	–	inactive: -1.05%
O=C(c1ccncc1)N1CCCCCC1c1nnc(-c2ccccc2)o1 (stereo not given)	inconclusive: 14.1 µM [inhibitor, partial curve, poor fit]	–
COC1CCN(C(=O)C(C)(C)Oc2nn(CCOc3ccccc3)c3ccccc23)CC1	inconclusive: 28.2 µM [inhibitor, partial curve]	–
O=C1NCc2ccccc2CC12CCCN2Cc1ccccc1OC(F)(F)F (stereo not given)	inconclusive: 56.2 µM [inhibitor, partial curve, poor fit]	–
Cc1ccccc1Nc1c(-c2cccs2)nc2cccc(C)n12	inconclusive: 35.5 µM [inhibitor, partial curve, poor fit]	–
COCC1CN(C2CCC2)CC12CCN(C(=O)NCc1ccccc1)CC2 (stereo not given)	inconclusive: 11.2 µM [inhibitor, partial curve]	–
CCOc1ccc(/C=C/c2nc(C#N)c(NCCc3ccccc3)o2)cc1	inconclusive: 3.16 µM [inhibitor, full curve, poor fit]	–
N#C/C(=C\c1ccco1)C(=O)NC1CCCCC1	–	inactive: -23.4%
Cc1oc(C(O)c2ccccc2F)nc1C(=O)Nc1ccccc1 (stereo not given)	–	inactive: 2.15% [at 86.2 µM]
Cc1ccc(NC(=O)c2ccc(NC(=O)N3CCSc4ncccc43)cc2)c(C)c1	inconclusive: 28.2 µM [inhibitor, partial curve, poor fit]	–
O=C(CSc1nnc(-c2c[nH]c3ccccc23)o1)N1CCCC1	–	inactive: -14.3%
CCCNC(=O)CC(c1ccc(F)cc1)c1c[nH]c2ccccc12 (stereo not given)	inconclusive: 28.2 µM [inhibitor, single point]	–

SMILES	Potency	activity change, negative = inhibition
CC1Oc2ccc(NC(=O)c3ccccc3Cl)cc2CN(Cc2ccc3c(c2)OCO3)C1=O (stereo not given)	inconclusive: 28.2 µM [inhibitor, single point]	–
O=C(O)C1CCCN(S(=O)(=O)Cc2ccccc2)C1 (stereo not given)	–	inactive: 1.28%
O=C(c1ccc(Cl)cc1Cl)N(CCS(=O)(=O)N1CCCCC1)Cc1ccncc1	inconclusive: 10 µM [inhibitor, partial curve, poor fit]	–
CCc1c(C)sc(NC(=O)/C=C/c2c(F)cccc2Cl)c1C#N	–	inactive: 10.4%
O=C(NC1CC1)c1cc(C2CC2)nc2onc(C3CCCN3)c12 (stereo not given)	inconclusive: 89.1 µM [inhibitor, partial curve]	–
Cn1cc(S(=O)(=O)c2ccccc2)c(=O)c2cc(F)c(N3CCCCCC3)cc21	inconclusive: 28.2 µM [inhibitor, partial curve, poor fit]	–
Cc1ccccc1NC(=O)C1=C(Cl)CCCC1	–	inactive: -5.07%
Cc1cc(C)cc(-n2c(SCC(=O)Nc3ccc4c(c3)OCCO4)nc3c([nH]c4ccccc43)c2=O)c1	inconclusive: 28.2 µM [inhibitor, partial curve, poor fit]	–
Cc1ccc(C(=O)NCc2ccc(F)cc2)cc1NC(=O)c1nsc2ccccc12	inconclusive: 31.6 µM [inhibitor, partial curve, poor fit]	–
S=c1[nH]nc(-c2ccccn2)n1/N=C/c1ccc(Cl)c(Cl)c1	inconclusive: 12.6 µM [inhibitor, partial curve, poor fit]	–
Cc1ccc(S(=O)(=O)/N=C(\N)Nc2nc(C)c3ccc(C)cc3n2)cc1	inconclusive: 39.8 µM [inhibitor, single point]	–
CCc1ccccc1-n1nc(-c2c(C)nc3scc(CC(=O)NCC(C)C)n3c2=O)cc1C	inconclusive: 28.2 µM [inhibitor, partial curve, poor fit]	–
CCCCC(CC)C(=O)Nc1c(CC)cccc1CC (stereo not given)	–	inactive: 5.25%
O=C(CSc1cn(CC(=O)N2CCCCC2)c2ccccc12)Nc1ccc(C(F)(F)F)cc1	inconclusive: 25.1 µM [inhibitor, single point]	–
O=[N+]([O-])c1ccc(C=Nc2cccc3ccccc23)cc1	inconclusive: 22.4 µM [inhibitor, partial curve, poor fit]	–
CCN(CC)C(=O)CCC1CCN(c2cc(NC3CC3)ncn2)CC1	–	inactive: -16.2%
COCCC(=O)N1CCNc2cnc(Nc3cccc(C(F)(F)F)c3)nc2C1	inconclusive: 39.8 µM [inhibitor, partial curve, poor fit]	–
Cc1nn(-c2ccc(F)cc2)c(Oc2ccccc2F)c1CCC(=O)NCC(C)C	–	inactive: -4.4%
CN1Cc2ccc(NCc3ccccc3)nc2C(C)(C(=O)NCc2cccs2)C1 (stereo not given)	inconclusive: 0.891 µM [inhibitor, partial curve, poor fit]	–
CCN(C(=O)Cn1cccc1-c1nc(-c2ccccc2)no1)c1cccc(C)c1	inconclusive: 39.8 µM [inhibitor, partial curve, poor fit]	–
COc1ccc(C(=O)NC(=S)NNC(=O)c2ccc(C)cc2)cc1	inconclusive: 22.4 µM [inhibitor, single point]	–
